Reference: a collection of fitness landscapes (doi:10.1038/s41467-024-54723-y)
Whole data set: some 18,000 sequences, median “TetR repression strength (sort-seq, GFP reporter)” near 0.23, cut for the highest 2% near 0.68. This is one part of the list.

Target: TetR (class B, Tn10) (UniProt P04483)
Assay: TetR repression strength (sort-seq, GFP reporter) (relative to tetO2 = 1); higher = stronger repression
Conditions: E. coli
Summary of the method: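 Repression strength was calculated by subtracting the read-weighted mean bin from the top bin index plus one and dividing by the unaltered operator's value. The plasmid library was low-copy in E. coli SIG10-MAX, with eight randomized operator positions between a constitutive promoter and sfGFP and constitutive TetR. Cultures grew 5 h at 37 °C in LB containing 50 µg/mL chloramphenicol before 10^6 cells were sorted by FACS into 13 fluorescence bins, each sequenced on Illumina. Three independent transformations were averaged for members having ≥30 reads in all replicates and a CV ≤0.5.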

Chain of UniProt P04483 (P04483 whole entry): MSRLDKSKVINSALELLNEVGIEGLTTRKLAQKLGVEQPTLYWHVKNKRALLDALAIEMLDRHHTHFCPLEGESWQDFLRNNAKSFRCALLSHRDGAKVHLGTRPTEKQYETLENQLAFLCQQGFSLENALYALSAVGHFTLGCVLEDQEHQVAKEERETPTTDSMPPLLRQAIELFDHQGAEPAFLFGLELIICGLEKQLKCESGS

Sequence | TetR repression strength
TCCCGGACAGTTACAGAGA | 0.677
TCCCGCTAAGTTAATGAGA | 0.126
TCCCAGGCAGTCGGGGAGA | 0.171
TCCCAGGCAGTCGTGGAGA | 0.28
TCCCGAACAGTTTTTGAGA | 0.244
TCCCACAAAGTCAGGGAGA | 0.104
TCCCAAATAGTTTAAGAGA | 0.373
TCCCACCGAGTGGGAGAGA | 0.359
TCCCGGTAAGTGGGAGAGA | 0.453
TCCCGTGCAGTGAATGAGA | 0.276
TCCCTATCAGTTGGCGAGA | 0.445
TCCCGGTAAGTCCGCGAGA | 0.101
TCCCGGTGAGTAGCCGAGA | 0.0389
TCCCGTCCAGTTGCTGAGA | 0.143
TCCCAGTGAGTCGTGGAGA | 0.25
TCCCTTGCAGTGTGTGAGA | 0.206
TCCCGCTGAGTCAGGGAGA | 0.327
TCCCCACTAGTATTCGAGA | 0.518
TCCCCAGAAGTATGGGAGA | 0.314
TCCCTTTCAGTTATAGAGA | 0.649
TCCCGTGGAGTGCTTGAGA | 0.0518
TCCCCTTCAGTGAAGGAGA | 0.702
TCCCGTTCAGTGGCGGAGA | 0.249
TCCCGATGAGTTGCGGAGA | 0.194
TCCCGGGAAGTTTGCGAGA | 0.17
TCCCAACGAGTGGGGGAGA | 0.31

Sequence | TetR repression strength
TCCCCGTCAGTTGGTGAGA | 0.216
TCCCTTAGAGTGATGGAGA | 0.284
TCCCTCTTAGTCAGGGAGA | 0.538
TCCCCAATAGTCGAAGAGA | 0.347
TCCCCTTCAGTGCTGGAGA | 0.149
TCCCCATAAGTGATGGAGA | 0.397
TCCCATGAAGTGGATGAGA | 0.0204
TCCCGTGGAGTTGGTGAGA | 0.246
TCCCCACAAGTAGGAGAGA | 0.322
TCCCATCCAGTCGATGAGA | 0.0703
TCCCGTTGAGTATGAGAGA | 0.232
TCCCGAAGAGTGAATGAGA | 0.397
TCCCGCATAGTGTAGGAGA | 0.432
TCCCACTGAGTAGCGGAGA | 0.242
TCCCCGACAGTTGTTGAGA | 0.435
TCCCGAGTAGTGTTCGAGA | 0
TCCCCGCAAGTAAACGAGA | 0.426
TCCCGTAGAGTAGTAGAGA | 0.234
TCCCAACAAGTGTAAGAGA | 0.523
TCCCGGCCAGTTAGAGAGA | 0.129
TCCCATTTAGTCTGGGAGA | 0.258
TCCCATCCAGTGACAGAGA | 0.612
TCCCAGCGAGTCTTCGAGA | 0.216
TCCCCGTTAGTGAGAGAGA | 0.141
TCCCGATGAGTATAGGAGA | 0.309
TCCCCGGGAGTCTCAGAGA | 0.476

Sequence | TetR repression strength
TCCCGCAGAGTGTCTGAGA | 0.216
TCCCCTGAAGTGCAGGAGA | 0.269
TCCCGGTGAGTAGCAGAGA | 0.336
TCCCGTGGAGTGGTGGAGA | 0.227
TCCCTATCAGTTATTGAGA | 0.504
TCCCTGGCAGTTGGGGAGA | 0.07
TCCCGGGAAGTGCCTGAGA | 0.0832
TCCCGGGCAGTATAGGAGA | 0.25
TCCCGGCCAGTGAGCGAGA | 0.233
TCCCGCCGAGTCCAAGAGA | 0.425
TCCCGGGTAGTGTCGGAGA | 0.26
TCCCGGGTAGTCGGGGAGA | 0.247
TCCCTGCGAGTTGCAGAGA | 0.166
TCCCCGTTAGTCCCCGAGA | 0.267
TCCCGCTCAGTACGCGAGA | 0.104
TCCCCAAGAGTATCTGAGA | 0.227
TCCCAAAGAGTGGTAGAGA | 0.164
TCCCAGTTAGTAGTGGAGA | 0.341
TCCCGTAAAGTGAGGGAGA | 0.105
TCCCTGTCAGTGCTAGAGA | 0.514
TCCCGGGCAGTTGCGGAGA | 0.261
TCCCGTGTAGTCCCGGAGA | 0.163
TCCCTCGGAGTATCGGAGA | 0.276
TCCCCATGAGTGAGTGAGA | 0.164
TCCCTGGAAGTAGAGGAGA | 0.128
TCCCTAAAAGTAGGCGAGA | 0.114

Sequence | TetR repression strength
TCCCGTCGAGTCAAGGAGA | 0.518
TCCCGTGCAGTCAATGAGA | 0.171
TCCCGCTAAGTAGAAGAGA | 0.202
TCCCCGCTAGTTAGGGAGA | 0.253
TCCCGGCAAGTCGGGGAGA | 0.249
TCCCTGGCAGTCAGGGAGA | 0.291
TCCCGTCCAGTTCTGGAGA | 0.281
TCCCGTGCAGTAGAAGAGA | 0.254
TCCCCAGGAGTTTGTGAGA | 0.418
TCCCAAGAAGTGAAAGAGA | 0.2
TCCCGCGAAGTAGGCGAGA | 0.224
TCCCAGTTAGTACCGGAGA | 0.161
TCCCATACAGTTTATGAGA | 0.215
TCCCATCAAGTTGTTGAGA | 0.237
TCCCGGCTAGTGCCGGAGA | 0.233
TCCCGTCAAGTCCGGGAGA | 0.207
TCCCGGGAAGTAGCTGAGA | 0.647
TCCCTCGTAGTGGTAGAGA | 0.311
TCCCGGTAAGTCGGAGAGA | 0.187
TCCCAGCCAGTTGGTGAGA | 0.192
TCCCGGACAGTACAAGAGA | 0.104
TCCCGCTAAGTGGCCGAGA | 0.191
TCCCGCGTAGTGCGCGAGA | 0.23
TCCCGGGAAGTACATGAGA | 0.593
